# In ChEMBL document CHEMBL4888484, “Replenishing the malaria drug discovery pipeline: Screening and hit evaluation of the MMV Hit Generation Library 1 (HGL1) against asexual blood stage Plasmodium falciparum ,using a nano luciferase reporter read-out” (2022):
# The campaign covered roughly 150,000 compounds. About 540 (0.36%) showed an effect of 50% or more. The list shows a part of the results.
# Tested on: Plasmodium falciparum
# Assay: Primary screen in NF54 nanoGlo assay, in single point, at 2uM, 72h; a lower Z score goes with more inhibition
# Format: functional, Erythrocyte
# Settings: timepoint 72 hour
Structure (SMILES),% Inhibition,Z score
CCn1cc(COc2ccc(N)cc2)c(C)n1,28%,-3.17
Cc1cccc(NC(=O)c2ccc(=O)n(CCC(=O)Nc3ccc4c(c3)OCO4)n2)c1,-7%,1.18
Cc1cc(CNC(=O)N2CCC[C@H](C)C2)on1,2%,-0.28
COc1ccc(OCC(=O)N2CCO[C@H](c3ccccc3)C2)cc1,-22%,3.48
Cc1ccc(C[C@H](CO)CNC(=O)c2ccc3c(c2)OCO3)cc1,-11%,1.17
Cc1ccc(S(=O)(=O)N2CCC(c3csc(N)n3)CC2)cc1,36%,-5.25
CCOCCCNCc1cccc(OC)c1,-7%,1.15
O=C(NCCN1CCCC1)c1cc2n(n1)CCN(Cc1ccccc1Cl)C2=O,-11%,1.35
Cc1ccc(NC(=O)c2ccc3c(c2)N(C)C(=O)c2ccccc2O3)c(C)c1,-1%,0.21
C[C@@H]1Oc2ccc(NC(=O)CCc3ccsc3)cc2NC1=O,-15%,2.06
CCCc1c(C(=O)NCc2ccco2)cnn1-c1nc(C)cc(=O)[nH]1,11%,-1.39
CCN1CCNC(=O)[C@@H]1CC(=O)NCc1cc2c(cc1OC)OCCO2,-9%,1.52
Cn1nc2c(cc1=O)C[C@@H](C(=O)NCc1ccccn1)CC2,-11%,2.1
Cc1nscc1C(=O)NCC(F)(F)C(F)F,1%,-0.12
O=S1(=O)CCC(c2ncnn2C2Cc3ccccc3C2)CC1,-5%,0.98
Fc1cc(F)cc(-c2noc3ncnc(N4CCN(Cc5ccccc5)CC4)c23)c1,0%,-0.01
CCN(C1CCCCC1)S(=O)(=O)c1ccc(C(=O)Nc2ccc3nc(C)sc3c2)cc1,-10%,1.62
O=C1c2ccccc2N[C@H](c2ccc(Cl)cc2Cl)N1c1ccc2ccccc2c1,-22%,2.52
CS(=O)(=O)NCCN1CCOc2ccccc2[C@@H]1CO,-8%,1.48
O=C1C2CC=CCC2C(=O)N1Cc1noc(C2CC2)n1 (configuration not stated),-3%,0.48
c1ccc(C[C@H](Nc2ncnc3c2CCC3)c2ccccn2)cc1,-3%,0.59
O=C(NCCc1c[nH]c2ccccc12)C1CC1c1ccco1 (configuration not stated),-9%,0.88

Structure (SMILES),% Inhibition,Z score
N#Cc1cc(F)c(N2CCC(c3nncn3C3CC3)CC2)c(F)c1,3%,-0.33
CCOCCC(=O)N[C@H]1CN(c2nccc(NC)n2)C[C@@H]1C(C)C,2%,-0.3
CN1CCN(S(=O)(=O)c2ccccc2F)C[C@]12CCNC(=O)CC2,0%,0.04
Cc1ccc(NC(=O)[C@H]2Nc3cc(F)ccc3S(=O)(=O)N2)cc1F,-8%,1.41
COC(=O)CN1CCC[C@H](NCC(F)(F)F)C1,-6%,0.79
Cc1ccc(C(=O)Cn2c(=O)ncc3c2cnn3[C@H]2CCS(=O)(=O)C2)c(C)c1,-1%,0.1
Cc1noc(C2CCN(C(=O)c3cc(C(C)C)[nH]n3)CC2)n1,-36%,4.23
Cc1nc(-c2ccco2)ccc1C(=O)N(C)Cc1cnn(C)c1,-3%,0.44
Cc1cnccc1CC(=O)N[C@H](CO)CC1CCCC1,-18%,2.84
Cc1noc(C)c1CN(C)C(=O)NC1CCCC1Oc1ccccc1 (configuration not stated),-13%,1.78
CCOCc1c(C)c2ccc(C(C)(C)C)cc2[nH]c1=O,26%,-2.99
CN1CC[C@@H]2CN(C(=O)C3(c4ccccc4)CCCC3)C[C@]2(C(=O)O)C1,3%,-0.58
Cc1ccc(-c2nc(C(=O)N3CCN(c4ccc(Cl)cc4)CC3)cs2)s1,-12%,1.38
O=C1C[C@H](N2CCN(/C=C/c3ccccc3)CC2)C(=O)N1c1cc(Cl)cc(Cl)c1,-5%,0.66
CCC(C)(C)NS(=O)(=O)c1c(F)cc(F)cc1Br,-9%,0.76
CC(C)(CNC(=O)N1CCC(C(N)=O)CC1)c1ccc2c(c1)OCO2,-5%,0.77
CN(CC#CCNC(=O)[C@H]1CCCN(C)C1)Cc1ccccc1,-5%,0.88
CS(=O)(=O)c1ccc(CN2CCC[C@H]2c2nc(-c3ccnc(N4CCC(C(N)=O)CC4)c3)no2)cc1,17%,-1.98
C#CCN(CCc1ccc2c(c1)CCO2)[C@H]1CCS(=O)(=O)C1,0%,0.01
CN(C)CCN1CCCN(C(=O)c2cnc3ccc(F)cc3c2)CC1,-5%,0.62
O=C(NC1CC1)c1ccc2[nH]c3c(c2c1)CCCC3,12%,-1.35
NC(C(=O)O)C(O)c1ccc(OCc2ccccc2)c(OCc2ccccc2)c1 (configuration not stated),0%,-0.06

Structure (SMILES),% Inhibition,Z score
CCCNc1ccccc1NC(=O)CNC(C)=O,-16%,1.67
CCc1nnsc1C(=O)Nc1ccc2oc(C3CC3)nc2c1,-7%,0.86
Cc1nn(Cc2csc(C(C)C)n2)c(C)c1[C@@H]1CCCC(=O)N1,-5%,0.5
Cc1cc(C)nc(CN(C)c2ncccc2C(N)=O)c1,4%,-0.58
C[C@@H](C(=O)N(C)Cc1ccc2c(c1)CN(C)C2)N1CCN(C)CC1,-5%,0.94
Cc1cc(-c2noc(C[C@H]3CCC(F)(F)C3)n2)cc2nc[nH]c12,-17%,1.41
CCCCC(CC)C(=O)NC(C)CC(=O)c1ccc(F)cc1 (configuration not stated),3%,-0.36
Cc1cnc(C)c(-c2cc(O)c3c(c2)CN(CCCn2cnnn2)CCO3)n1,3%,-0.61
COc1cc(Cl)c(C)cc1NC(=O)[C@@H](C#N)C(=O)c1cc(C)no1,-29%,3.35
Brc1cccc2c(-c3cnn(-c4ccccc4)c3)n[nH]c12,-2%,0.21
COCCCNC(=O)CCN(CC(C)C)C(=O)c1cc(C)oc1C,-11%,1.46
C[C@@H](NC(=O)N1CCC(C(=O)O)CC1)c1ccc(Cl)cc1Cl,-10%,1.23
O=C(C[C@H](n1cccn1)C(F)(F)F)N1CCN(C2CC2)c2ccc(Cl)cc21,-2%,0.26
O=C(NC1CC1)c1ccc(OCC(=O)N(C2CCCC2)C2CC2)cc1,-13%,1.89
NC(=O)c1ccc(-c2cnc3ccccc3c2)nc1,-17%,3.25
Cc1cnc(NC(=O)[C@H]2CCCC(C)(C)C2)[nH]1,-2%,0.29
CC1CN(c2cncc(Br)c2)CC(C)O1 (configuration not stated),0%,0
C[C@@H](C(=O)Nc1ncccc1OCc1cccnc1)c1ccsc1,-12%,1.81
CC(C)(C)c1nc2ccc(S(=O)(=O)N3CCO[C@H](C(F)F)C3)cc2s1,-11%,2.14
Cc1nn(C)cc1C(=O)N[C@@](C)(CO)C1CCCCC1,-8%,0.77
CCCn1cc(CN/C(=N\c2cc(C)cc(C)c2)NC(=O)c2cccc(N(C)C)c2)c(C)n1,1%,-0.12
OCc1nc2cc(-c3cccnc3)ccc2[nH]1,2%,-0.31

Structure (SMILES),% Inhibition,Z score
O=C(NCCCNC(=O)N1CC2CCCC2C1)C1CCC1 (configuration not stated),-4%,0.66
CCn1ccc(C(=O)N2CCC(Cc3nnc(C)[nH]3)CC2)n1,-18%,2.58
Cc1cnn(CC(C)NC(C)c2ccc(C(F)F)nc2)c1 (configuration not stated),-8%,0.85
Cc1ccc(C2OCC3(CO)COC(c4ccc(C)cc4)N23)cc1 (configuration not stated),-13%,1.37
CC(C)N1C[C@@]2(CCCN(c3cc(N)nc(N)n3)C2)CCC1=O,0%,0
CC(C)(C)OC(=O)NCc1nnc(C2(c3cccc(F)c3)CCC2)o1,-4%,0.31
O=C(CCc1ccccc1F)N1CC(N2C(=O)CNC2=O)C1,-5%,0.98
CC(C)COC[C@H](C)NC(=O)C1(C)CCCC1,-3%,0.39
Cc1cnc(NCCN2CCC(CO)CC2)nc1,-5%,1.02
CC(C)c1cc(C(=O)NC(C)(CO)CO)no1,-7%,1.07
Cc1ccc(OS(=O)(=O)c2ccccc2)c(-n2nc3ccccc3n2)c1,-9%,1.22
CC(C)N(C)S(=O)(=O)NC[C@@H](c1ccco1)N1CCCC1,0%,0.02
C[C@@H](CN(C(=O)c1ccoc1)c1ccccc1)NC(=O)c1ccoc1,-9%,1.35
O=C(c1cc(NS(=O)(=O)c2ccccc2)ccn1)N1CCCCC1,-6%,0.88
Cc1nc2ccc(C(=O)NC(C)(C)CN3CCOCC3)cc2n1C,-6%,0.91
Cc1cc(NC(=O)c2cc3nc(N4CCCCC4)sc3s2)ccc1F,1%,-0.2
C=CCNC(=O)C1(NCc2c(C)noc2C)CCCCC1,-8%,1.04
CC[C@H](NS(=O)(=O)N1CCCCCC1)c1nccs1,-14%,1.84
CC(C)(C)C(=O)N1CCC[C@H](c2nc(-c3cncc(O)c3)no2)C1,-17%,1.87
NC(=O)N[C@@H](CC(=O)N1CCCCCC1)c1ccccc1,-7%,1.39
